Measurements as given in patent US20260232828A1, “LIGAND-CYTOTOXICITY DRUG CONJUGATES AND PHARMACEUTICAL USES THEREOF” (HANSOH BIO LLC, priority 2023, published 2026).

Assays:
[1] = target: T1, human CDH17 His Tag (Homo sapiens, UniProt Q12864); assay: ELISA binding of hybridoma clones to human CDH17 protein; settings: hybridoma supernatant; plate coated with 1 μg/ml antigen
T1 construct: His tag; purchased Sino biological 11360-H08H
Procedure: (§1) ELISA was performed using the DuoSet ELISA Ancillary Kit (R&D System, DY008). ELISA plates were coated with 1 μg/ml of human CDH17 His Tag (Sino biological, catalog number 11360-H08H), or BSA overnight. Excess unbound proteins were washed off by washing the plates three times with the wash buffer before blocking for 1 hour at room temperature. 100 μl CDH17 hybridoma supernatant was added in each well and incubated for 1 hour at room temperature. Excess unbound antibodies were washed off and 100 μl of 1:30000 diluted secondary antibody Goat anti-mouse IgG Fc-HRP (ab5870) was added to each well for another 1 hour. Plates were washed before the addition 50 μL of […] (color A and color B) according to manufacturer's protocol. The reactions were stopped using 25 μL of stop solution. Optical density at 450 nm of samples was measured by a microplate reader (PerkinElmer). All tested clones bound selectively to human CDH17 but not BSA.

[2] = tested on: AsPC1 cells; assay: Indirect killing assay (cell internalization) of hybridoma supernatants; assay type: cell-based, human; settings: hybridoma supernatant with Fab anti-mouse IgG Fc-MMAF 20 nM, in words
Procedure: Cell internalization activities of hybridoma supernatants were measured using an indirect killing assay in AsPC1 cells. The AsPC1 cells were seeded in 96 well plate at 8,000 cells/well with propidium iodide (abeam, Cat #ab14083) at 500 ng/mL and SPY650-DNA (Cytoskeleton, Inc., Cat #CYSC501) at 1:2000 dilution. Cells were incubated overnight at 37° C. in 5% CO2. The hybridoma supernatants from each hybridoma clone were diluted with hybridoma culture medium containing 500 ng/mL propidium iodide and 2000-fold diluted SPY650-DNA and mixed with Fab anti-mouse IgG Fc-MMAF conjugates with cleavable linker (Moradec, AM-202AF), then added to each well. The final concentrations of mouse IgG were roughly 10 nM, 3.33 nM, and 1.11 nM. The final concentration of the Fab anti-mouse IgG Fc-MMAF conjugates in each well was 20 nM. With the presence of secondary Fab-vc-MMAF, the internalized antibody/Fab-vc-MMAF conjugates complex will release the cytotoxic payload and kill the cells. Cytation5 (Agilent) was used to detect the viability of the cells in each well by imaging the plates every 8 h.
A purified anti-human CDH17 antibody was used as a positive control (Invitrogen, Cat #MA5-29135). A purified mouse IgG1 antibody was used as isotype control (Biolegend, Cat #400102).

[3] = tested on: CDH17 positive cell line AsPC1, GP2d and CDH17 negative cell line SW480; assay: Flow cytometry binding of hybridoma supernatants to CDH17 expressing cancer cells; parameters: species or system human; settings: undiluted hybridoma supernatant, in words
Procedure: Hybridoma supernatants were subjected to binding tests on CDH17 positive cell line AsPC1 (ATCC, CRL-1682), GP2d (Creative bioarray, CSC-J9456), and CDH17 negative cell line SW480 (ATCC, CCL-228) using flow cytometry analysis. Briefly, 50 μL of cells in cell staining buffer (2×10^6 cells/mL) was mixed with 50 μL undiluted supernatants. The mixture was incubated on ice for 1 hour and then washed with ice-cold staining buffer twice. The cells were subsequently stained with 50 μL of PE labeled secondary antibody (1:250 dilution, Biolegend, Cat #405307) for 20 min. After washing by staining buffer and fixing by 4% PFA, cells were analyzed by flow cytometry.
A purified anti-human CDH17 antibody was used as a positive control (Sino Biological, Cat #11360-MM02). A purified mouse IgG1 antibody was used as isotype control (Biolegend, Cat #400102).

[4] = target: BSA (Bos taurus, UniProt P02769); assay: ELISA binding of hybridoma clones to BSA (specificity control); settings: hybridoma supernatant; plate coated with BSA
Procedure: as §1

Sequence of BSA (P02769 25-607): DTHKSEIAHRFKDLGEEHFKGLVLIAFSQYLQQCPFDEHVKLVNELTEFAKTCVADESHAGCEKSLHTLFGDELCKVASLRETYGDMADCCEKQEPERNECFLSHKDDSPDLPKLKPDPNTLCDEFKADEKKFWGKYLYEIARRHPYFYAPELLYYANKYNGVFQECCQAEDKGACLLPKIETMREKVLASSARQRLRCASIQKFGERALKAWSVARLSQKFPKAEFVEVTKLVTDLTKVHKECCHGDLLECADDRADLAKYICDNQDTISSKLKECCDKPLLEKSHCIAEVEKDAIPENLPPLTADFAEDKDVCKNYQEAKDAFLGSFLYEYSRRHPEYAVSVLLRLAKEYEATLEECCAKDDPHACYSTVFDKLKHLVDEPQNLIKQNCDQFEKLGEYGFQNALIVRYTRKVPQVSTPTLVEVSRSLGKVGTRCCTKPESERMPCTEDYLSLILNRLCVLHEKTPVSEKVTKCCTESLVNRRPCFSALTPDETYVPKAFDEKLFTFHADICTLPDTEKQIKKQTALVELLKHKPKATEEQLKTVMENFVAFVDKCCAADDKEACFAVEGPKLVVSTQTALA

B1: 17F3: anti-CDH17 antibody; SEQ ID NO 93 (heavy chain) and 94 (light chain) (antibody, listed as Homo sapiens)
heavy: EVQLVESGGGLVKSGGSLRLSCAASGFTFSSYSLKWVRQAPGKGLEWVSSISSSSGYIYYADSVKGRFTISRDNAKNSLYLQMNSLRAEDTAMYYCARAVSTIAARPGYYYYYMDVWGKGTLVTVSS[letters of human IgG1 constant region omitted]
light: DIQMTQSPSSVSASIGDRVTITCRASQDISTWFAWYQQKPGKAPKLLIYAASTLRSGVPSRFSGSGSGTDFTLTINSLQPEDFATYYCQQANSFPLTFGGGTKVEIKRTVAAPSVFIFPPSDEQLKSGTASVVCLLNNFYPREAKVQWKVDNALQSGNSQESVTEQDSKDSTYSLSSTLTLSKADYEKHKVYACEVTHQGLSSPVTKSFNRGEC
- Protein binding (human CDH17) [1]: 1.663 OD450
- cell internalization activity [2]: capable of internalizing into CDH17 positive cell line
- binding profile to CDH17 positive versus negative cells [3]: enhanced binding profile to AsPC1 cells and GP2d cells compared to SW480 cells
- Protein binding (BSA) [4]: 0.0425 OD450
